Reference: article PMC12820563, “FoxP3 forms a head-to-head dimer in vivo and stabilizes its multimerization on adjacent microsatellites”
This is one part of the list.

biological target: T1, MBP-FoxP1dN (Mus musculus, UniProt P58462 326-579); test: PD-seq (MBP pull-down with sequencing); 20 mM Tris-HCl pH 7.5, 100 mM NaCl, 1.5 mM MgCl2, 0.4 uM protein, 0.1 uM dsDNA library, 30 min, room temperature, amylose pull-down; high values mean tight binding; conditions: protein: recombinant; tags: His6-MBP; chain copies: 2; dsDNA, one strand shown
T1 sequence: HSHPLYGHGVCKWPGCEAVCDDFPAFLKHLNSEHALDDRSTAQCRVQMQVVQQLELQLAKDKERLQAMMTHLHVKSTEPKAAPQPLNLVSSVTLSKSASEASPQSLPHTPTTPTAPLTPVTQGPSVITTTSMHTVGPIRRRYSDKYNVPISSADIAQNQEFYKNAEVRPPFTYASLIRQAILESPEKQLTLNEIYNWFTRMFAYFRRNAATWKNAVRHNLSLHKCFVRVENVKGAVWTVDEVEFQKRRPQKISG
In short: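 Binding is the reads-per-million enrichment of pull-down relative to input, pooled across replicates. For this, 0.4 µM His6-MBP-tagged mouse FoxP3 or FoxP1 fragment lacking the N-terminus, made in E. coli, was incubated with 0.1 µM Klenow-filled double-stranded degenerate DNA library for 30 min at room temperature in Tris pH 7.5 buffer with NaCl and MgCl2. Complexes bound to amylose resin were washed three times before proteinase K released the DNA for PCR barcoding and Illumina sequencing.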

Sequence | binding signal
GATGATTGTTCTCCCAGCTGATGAATTAGAGGAATCGAGTAAACAAATTTTCCTAATCTTTCTGTTCAAGCGCCATCTAC | 0.902 RPM ratio (pull-down/input)
GATGATTGTTCTCCCAGCTGATGAATTAGACGTTTCGAGTAAACAAATTTTCCTAATCTTTCTGTTCAAGCGCCATCTAC | 0.937 RPM ratio (pull-down/input)
GATGATTGTTCTCCCAGCTGATGAATTACGGGCATCGAGTAAACAAATTTTCCTAATCTTTCTGTTCAAGCGCCATCTAC | 1.11 RPM ratio (pull-down/input)
GATGATTGTTCTCCCAGCTGATGAATTGCCACGGTCGAGTAAACAAATTTTCCTAATCTTTCTGTTCAAGCGCCATCTAC | 0.928 RPM ratio (pull-down/input)
GATGATTGTTCTCCCAGCTGATGAATTGCTTCCCTCGAGTAAACAAATTTTCCTAATCTTTCTGTTCAAGCGCCATCTAC | 1.03 RPM ratio (pull-down/input)
GATGATTGTTCTCCCAGCTGATGAATTAGTTGGGTCGAGTAAACAAATTTTCCTAATCTTTCTGTTCAAGCGCCATCTAC | 0.908 RPM ratio (pull-down/input)
GATGATTGTTCTCCCAGCTGATGAATTTCCAATGTCGAGTAAACAAATTTTCCTAATCTTTCTGTTCAAGCGCCATCTAC | 0.862 RPM ratio (pull-down/input)
GATGATTGTTCTCCCAGCTGATGAATTACTCGTTTCGAGTAAACAAATTTTCCTAATCTTTCTGTTCAAGCGCCATCTAC | 0.959 RPM ratio (pull-down/input)
GATGATTGTTCTCCCAGCTGATGAATTCACTTCATCGAGTAAACAAATTTTCCTAATCTTTCTGTTCAAGCGCCATCTAC | 0.896 RPM ratio (pull-down/input)
GATGATTGTTCTCCCAGCTGATGAATTTTCGTCATCGAGTAAACAAATTTTCCTAATCTTTCTGTTCAAGCGCCATCTAC | 1.12 RPM ratio (pull-down/input)
GATGATTGTTCTCCCAGCTGATGAATTTTTCTGCTCGAGTAAACAAATTTTCCTAATCTTTCTGTTCAAGCGCCATCTAC | 0.893 RPM ratio (pull-down/input)
GATGATTGTTCTCCCAGCTGATGAATTGCTAACTTCGAGTAAACAAATTTTCCTAATCTTTCTGTTCAAGCGCCATCTAC | 1.17 RPM ratio (pull-down/input)
GATGATTGTTCTCCCAGCTGATGAATTGCTCGGATCGAGTAAACAAATTTTCCTAATCTTTCTGTTCAAGCGCCATCTAC | 0.91 RPM ratio (pull-down/input)
GATGATTGTTCTCCCAGCTGATGAATTGCTAGAATCGAGTAAACAAATTTTCCTAATCTTTCTGTTCAAGCGCCATCTAC | 1.14 RPM ratio (pull-down/input)
GATGATTGTTCTCCCAGCTGATGAATTTTCAGAGTCGAGTAAACAAATTTTCCTAATCTTTCTGTTCAAGCGCCATCTAC | 0.876 RPM ratio (pull-down/input)
GATGATTGTTCTCCCAGCTGATGAATTAAGTAGCTCGAGTAAACAAATTTTCCTAATCTTTCTGTTCAAGCGCCATCTAC | 0.965 RPM ratio (pull-down/input)
GATGATTGTTCTCCCAGCTGATGAATTCCAATATTCGAGTAAACAAATTTTCCTAATCTTTCTGTTCAAGCGCCATCTAC | 0.983 RPM ratio (pull-down/input)
GATGATTGTTCTCCCAGCTGATGAATTAGGAGTATCGAGTAAACAAATTTTCCTAATCTTTCTGTTCAAGCGCCATCTAC | 1.02 RPM ratio (pull-down/input)
GATGATTGTTCTCCCAGCTGATGAATTTCGGACTTCGAGTAAACAAATTTTCCTAATCTTTCTGTTCAAGCGCCATCTAC | 0.741 RPM ratio (pull-down/input)
GATGATTGTTCTCCCAGCTGATGAATTCTTGACTTCGAGTAAACAAATTTTCCTAATCTTTCTGTTCAAGCGCCATCTAC | 0.876 RPM ratio (pull-down/input)

Sequence | binding signal
GATGATTGTTCTCCCAGCTGATGAATTCTCTGAATCGAGTAAACAAATTTTCCTAATCTTTCTGTTCAAGCGCCATCTAC | 0.874 RPM ratio (pull-down/input)
GATGATTGTTCTCCCAGCTGATGAATTCAAGGCTTCGAGTAAACAAATTTTCCTAATCTTTCTGTTCAAGCGCCATCTAC | 0.809 RPM ratio (pull-down/input)
GATGATTGTTCTCCCAGCTGATGAATTTGCGAACTCGAGTAAACAAATTTTCCTAATCTTTCTGTTCAAGCGCCATCTAC | 0.948 RPM ratio (pull-down/input)
GATGATTGTTCTCCCAGCTGATGAATTAATGTACTCGAGTAAACAAATTTTCCTAATCTTTCTGTTCAAGCGCCATCTAC | 1.14 RPM ratio (pull-down/input)
GATGATTGTTCTCCCAGCTGATGAATTCCCCAGGTCGAGTAAACAAATTTTCCTAATCTTTCTGTTCAAGCGCCATCTAC | 0.743 RPM ratio (pull-down/input)
GATGATTGTTCTCCCAGCTGATGAATTGTGTTCTTCGAGTAAACAAATTTTCCTAATCTTTCTGTTCAAGCGCCATCTAC | 1.33 RPM ratio (pull-down/input)
GATGATTGTTCTCCCAGCTGATGAATTAATAACTTCGAGTAAACAAATTTTCCTAATCTTTCTGTTCAAGCGCCATCTAC | 1.12 RPM ratio (pull-down/input)
GATGATTGTTCTCCCAGCTGATGAATTCGTGTCTTCGAGTAAACAAATTTTCCTAATCTTTCTGTTCAAGCGCCATCTAC | 0.864 RPM ratio (pull-down/input)
GATGATTGTTCTCCCAGCTGATGAATTGGATGATTCGAGTAAACAAATTTTCCTAATCTTTCTGTTCAAGCGCCATCTAC | 0.976 RPM ratio (pull-down/input)
GATGATTGTTCTCCCAGCTGATGAATTCCATGCTTCGAGTAAACAAATTTTCCTAATCTTTCTGTTCAAGCGCCATCTAC | 0.836 RPM ratio (pull-down/input)
GATGATTGTTCTCCCAGCTGATGAATTGTTAGTCTCGAGTAAACAAATTTTCCTAATCTTTCTGTTCAAGCGCCATCTAC | 1.53 RPM ratio (pull-down/input)
GATGATTGTTCTCCCAGCTGATGAATTAGCGCCGTCGAGTAAACAAATTTTCCTAATCTTTCTGTTCAAGCGCCATCTAC | 0.813 RPM ratio (pull-down/input)
GATGATTGTTCTCCCAGCTGATGAATTTTGGTGATCGAGTAAACAAATTTTCCTAATCTTTCTGTTCAAGCGCCATCTAC | 1.01 RPM ratio (pull-down/input)
GATGATTGTTCTCCCAGCTGATGAATTGGAGGTCTCGAGTAAACAAATTTTCCTAATCTTTCTGTTCAAGCGCCATCTAC | 0.723 RPM ratio (pull-down/input)
GATGATTGTTCTCCCAGCTGATGAATTGCGACACTCGAGTAAACAAATTTTCCTAATCTTTCTGTTCAAGCGCCATCTAC | 1.08 RPM ratio (pull-down/input)
GATGATTGTTCTCCCAGCTGATGAATTACGTACGTCGAGTAAACAAATTTTCCTAATCTTTCTGTTCAAGCGCCATCTAC | 1.07 RPM ratio (pull-down/input)
GATGATTGTTCTCCCAGCTGATGAATTTGCCCTGTCGAGTAAACAAATTTTCCTAATCTTTCTGTTCAAGCGCCATCTAC | 0.858 RPM ratio (pull-down/input)
GATGATTGTTCTCCCAGCTGATGAATTACCAGCATCGAGTAAACAAATTTTCCTAATCTTTCTGTTCAAGCGCCATCTAC | 1.1 RPM ratio (pull-down/input)
GATGATTGTTCTCCCAGCTGATGAATTAAGAACTTCGAGTAAACAAATTTTCCTAATCTTTCTGTTCAAGCGCCATCTAC | 0.846 RPM ratio (pull-down/input)
GATGATTGTTCTCCCAGCTGATGAATTCACGCCGTCGAGTAAACAAATTTTCCTAATCTTTCTGTTCAAGCGCCATCTAC | 0.904 RPM ratio (pull-down/input)
